From the supplement of paper PMC6206098
± gives the uncertainty stated by the source. The sequences are guide strands of siRNAs; only the seed at positions 2 to 7 varies.

How the values were obtained:
3LL = test: cell viability relative to siNT1 control; higher = less toxic; settings: concentration: 10 nM; 96 h; Mus musculus;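 note: Luminescence-based viability of cells reverse transfected in 384-well plates with lipid-complexed siRNAs built on a non-toxic 19mer backbone whose passenger strand carries 2′-O-methyl groups at positions 1 and 2, triplicates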
Procedure: (§1)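 Arrayed screen of 4096 siRNA duplexes, each carrying one of all possible 6mer seeds at guide-strand positions 2-7 in a fixed neutral 19mer scaffold (constant flanks: U at position 1, then ACAUGUAAACCA, plus a 3' AA overhang). The passenger strand is 2'-O-methylated at positions 1-2 so only the guide strand loads into RISC. Duplexes were reverse-transfected at 10 nM with RNAiMAX in triplicate in 384-well plates; viability was read by CellTiter-Glo ATP content 96 h after transfection. Values are % viability normalised to lipid-only wells (HeyA8, H460, M565) or to siNT1 (3LL).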

H460 = test: cell viability relative to lipid-only control; HeyA8 human ovarian and H460 human lung cancer; M565 mouse liver and 3LL mouse lung cancer; siNT1 is a non-toxic control siRNA; higher = less toxic; settings: concentration: 10 nM; 96 h; Homo sapiens
Procedure: as §1

HeyA8 = test: as above; settings: concentration: 10 nM; 96 h; Homo sapiens
Procedure: as §1

M565 = test: as above; settings: concentration: 10 nM; 96 h; Mus musculus
Procedure: as §1
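Throughout, for cell viability relative to lipid-only control: reverse lipid transfection in 384-well plates, in triplicate, of duplexes on a non-toxic 19mer backbone with passenger strand 2′-O-methylated at positions 1 and 2, luminescence viability read-out.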

Row | Sequence | cell viability (3LL) [%] | cell viability (H460) [%] | cell viability (HeyA8) [%] | cell viability (M565) [%]
1 | UGAACCCACAUGUAAACCAAA | 59 ± 13 | 64.4 ± 2.9 | 65.7 ± 8.3 | 28.5 ± 2.2
2 | UCAGUUUACAUGUAAACCAAA | 86.2 ± 11 | 53.1 ± 2.3 | 62 ± 5.7 | 72.6 ± 7.6
3 | UAACGUAACAUGUAAACCAAA | 88.1 ± 5.7 | 71.05 ± 0.61 | 86.7 ± 7.8 | 72.2 ± 3.8
4 | UCGGUUCACAUGUAAACCAAA | 40 ± 8.3 | 44.5 ± 2.7 | 30.7 ± 2.2 | 25.3 ± 5
5 | UCCCCCUACAUGUAAACCAAA | 74.4 ± 17 | 62.2 ± 5.4 | 52.8 ± 7.8 | 32.1 ± 3.4
6 | UUGAGUGACAUGUAAACCAAA | 85 ± 3.5 | 62.9 ± 9.3 | 86 ± 6.9 | 60.5 ± 6.1
7 | UCUGCAAACAUGUAAACCAAA | 101 ± 15 | 75 ± 5.1 | 91.9 ± 8.2 | 81.2 ± 16
8 | UUGGCCUACAUGUAAACCAAA | 46.2 ± 12 | 89 ± 10 | 80.6 ± 5 | 44.4 ± 2.2
9 | UAUGGCCACAUGUAAACCAAA | 37 ± 3.9 | 52.4 ± 7.1 | 83.6 ± 3.7 | 11.9 ± 2.7
10 | UCUAGAUACAUGUAAACCAAA | 89.2 ± 14 | 54.3 ± 2.4 | 83.7 ± 11 | 72.1 ± 12
11 | UUCACGCACAUGUAAACCAAA | 58.8 ± 15 | 38.2 ± 3.9 | 71.4 ± 9.5 | 42.4 ± 12
12 | UAUUACUACAUGUAAACCAAA | 103 ± 18 | 61.4 ± 9.1 | 74.7 ± 5.8 | 68.2 ± 11
13 | UUAUAAGACAUGUAAACCAAA | 71.7 ± 11 | 77.5 ± 24 | 100 ± 9 | 94.3 ± 6.9
14 | UGUCUCAACAUGUAAACCAAA | 49.7 ± 6.4 | 51.3 ± 5.3 | 44.1 ± 6.5 | 36 ± 7.3
15 | UGCCGCUACAUGUAAACCAAA | 17.3 ± 4.6 | 45.5 ± 3.7 | 13.2 ± 2 | 12.9 ± 3.8
16 | UUUAAGCACAUGUAAACCAAA | 73.2 ± 4.8 | 62.9 ± 3.7 | 100 ± 11 | 75.6 ± 15
17 | UACUUUAACAUGUAAACCAAA | 99.8 ± 12 | 84.5 ± 20 | 73 ± 3.8 | 84.1 ± 1.7
18 | UCGCUGAACAUGUAAACCAAA | 84.4 ± 14 | 84.1 ± 11 | 82.4 ± 1.5 | 44.7 ± 6.5
19 | UUAACCUACAUGUAAACCAAA | 76.7 ± 7 | 79.6 ± 3.9 | 70.4 ± 1.9 | 85.6 ± 16
20 | UAUGCGGACAUGUAAACCAAA | 107 ± 4 | 74.6 ± 4.3 | 99.8 ± 1.5 | 70.5 ± 4.9

Row | Sequence | cell viability (3LL) [%] | cell viability (H460) [%] | cell viability (HeyA8) [%] | cell viability (M565) [%]
21 | UGGCUUGACAUGUAAACCAAA | 43.3 ± 4.2 | 44.6 ± 5.4 | 34 ± 1.7 | 12.7 ± 4.7
22 | UGCCAGAACAUGUAAACCAAA | 85.1 ± 10 | 63.4 ± 4.7 | 71.1 ± 3.6 | 52 ± 7.8
23 | UCGGGGGACAUGUAAACCAAA | 66.3 ± 18 | 9.28 ± 0.96 | 4.27 ± 0.8 | 8.23 ± 4
24 | UCAAUUCACAUGUAAACCAAA | 86.7 ± 16 | 60.7 ± 6.9 | 63 ± 4.4 | 59.8 ± 8.9
25 | UCAAAUUACAUGUAAACCAAA | 100 ± 20 | 67.1 ± 9 | 90 ± 6.1 | 60.9 ± 6.5
26 | UCGGGGCACAUGUAAACCAAA | 14.8 ± 3.9 | 13.4 ± 1.2 | 2.48 ± 0.42 | 19.7 ± 1.4
27 | UUAUCAAACAUGUAAACCAAA | 65.9 ± 9.2 | 72.8 ± 9.3 | 94.6 ± 3.8 | 76.4 ± 6.4
28 | UGUCCAAACAUGUAAACCAAA | 57.8 ± 10 | 54.1 ± 4.3 | 66.3 ± 2.1 | 23.3 ± 1.1
29 | UAUAAAGACAUGUAAACCAAA | 101 ± 19 | 77 ± 2.5 | 95 ± 5.8 | 85.8 ± 3.5
30 | UCGCCCGACAUGUAAACCAAA | 83.6 ± 12 | 70.8 ± 15 | 86.8 ± 0.96 | 54 ± 8.4
31 | UGAGAACACAUGUAAACCAAA | 67.9 ± 12 | 38.6 ± 4.5 | 72 ± 4.9 | 44.6 ± 12
32 | UCAUGGCACAUGUAAACCAAA | 20.2 ± 6.3 | 22.2 ± 1.8 | 14.1 ± 1.1 | 4.66 ± 2
33 | UUACGAGACAUGUAAACCAAA | 105 ± 15 | 92.3 ± 10 | 96 ± 6.7 | 71.1 ± 20
34 | UUAAAGUACAUGUAAACCAAA | 46.6 ± 4.7 | 35.3 ± 1.3 | 47.4 ± 3.9 | 44.9 ± 9.2
35 | UCCGACUACAUGUAAACCAAA | 101 ± 29 | 58.5 ± 17 | 71.2 ± 9.8 | 68.3 ± 20
36 | UGUACGGACAUGUAAACCAAA | 62.6 ± 11 | 57.9 ± 5.2 | 70.1 ± 10 | 50.8 ± 3.4
37 | UCCUAGCACAUGUAAACCAAA | 31.5 ± 6.2 | 26.7 ± 1.3 | 21.1 ± 1 | 24.8 ± 1
38 | UAUAGCCACAUGUAAACCAAA | 5.69 ± 0.3 | 19.5 ± 1.1 | 37.7 ± 3.4 | 12.9 ± 2.4
39 | UCCCACAACAUGUAAACCAAA | 109 ± 20 | 44.9 ± 2.7 | 81 ± 6.2 | 69.5 ± 23
40 | UAAGCCAACAUGUAAACCAAA | 95.1 ± 2.7 | 85.2 ± 22 | 85 ± 15 | 62.2 ± 5.8

Row | Sequence | cell viability (3LL) [%] | cell viability (H460) [%] | cell viability (HeyA8) [%] | cell viability (M565) [%]
41 | UAGGGCCACAUGUAAACCAAA | 31.8 ± 4.2 | 28.1 ± 3 | 3.62 ± 0.12 | 2.41 ± 0.67
42 | UCUUAAGACAUGUAAACCAAA | 92.2 ± 15 | 68.1 ± 6.8 | 86.3 ± 4.8 | 65.3 ± 12
43 | UCUGGACACAUGUAAACCAAA | 42 ± 5.8 | 41.4 ± 3.4 | 61.6 ± 5.2 | 8.06 ± 1.3
44 | UACCUACACAUGUAAACCAAA | 94.9 ± 5.6 | 53.5 ± 8 | 63.9 ± 3 | 33.6 ± 5.4
45 | UUAAGGCACAUGUAAACCAAA | 10.1 ± 4 | 23.3 ± 1.1 | 13.7 ± 1.2 | 9.08 ± 4.3
46 | UCUACCGACAUGUAAACCAAA | 102 ± 18 | 59 ± 5.3 | 91.6 ± 13 | 69.6 ± 7.2
47 | UUCAGUGACAUGUAAACCAAA | 105 ± 19 | 62.4 ± 5.3 | 44.6 ± 1.8 | 91.6 ± 5.1
48 | UCUAGGGACAUGUAAACCAAA | 96.7 ± 18 | 48.3 ± 2.3 | 89.6 ± 9.8 | 65.1 ± 17
49 | UCGGAAAACAUGUAAACCAAA | 92.9 ± 17 | 65.5 ± 2.5 | 87.5 ± 7.9 | 69.2 ± 9.4
50 | UACUCGUACAUGUAAACCAAA | 87.9 ± 16 | 66.8 ± 13 | 77.3 ± 8.8 | 70.7 ± 19
51 | UUGUUCAACAUGUAAACCAAA | 91.4 ± 8.5 | 72.6 ± 17 | 79.1 ± 7.9 | 35.7 ± 3.4
52 | UUGUUUAACAUGUAAACCAAA | 98.3 ± 9.5 | 78.8 ± 12 | 82.5 ± 2.2 | 91.6 ± 7.3
53 | UCCCUCCACAUGUAAACCAAA | 42.3 ± 3.5 | 33 ± 5.5 | 33.6 ± 1.7 | 24.2 ± 10
54 | UUAUCGGACAUGUAAACCAAA | 48.3 ± 7 | 89.6 ± 14 | 93.2 ± 3.6 | 87.5 ± 17
55 | UCCAGAUACAUGUAAACCAAA | 104 ± 36 | – | – | –
56 | UAAUUUGACAUGUAAACCAAA | – | – | 94.3 ± 3.4 | –
57 | UUUACCAACAUGUAAACCAAA | 106 ± 15 | – | 100 ± 6.7 | –
58 | UGAUUUAACAUGUAAACCAAA | 74.2 ± 18 | 73.4 ± 12 | 73.9 ± 6.9 | –
